Assay results reported in publication PMC4336329 (PLoS ONE, 2015).
The whole screen tested about 310,000 compounds, of which about 2,200 (0.71%) showed an effect of 50% or more. Effects have a minus sign here. Some of the results follow.

Target: human ether-à-go-go-related gene (hERG) potassium channel (human, UniProt Q12809)
Test: primary screen, population patch clamp on CHO cells stably expressing hERG

human ether-à-go-go-related gene (hERG) potassium channel, sequence (Q12809 whole entry, looked up): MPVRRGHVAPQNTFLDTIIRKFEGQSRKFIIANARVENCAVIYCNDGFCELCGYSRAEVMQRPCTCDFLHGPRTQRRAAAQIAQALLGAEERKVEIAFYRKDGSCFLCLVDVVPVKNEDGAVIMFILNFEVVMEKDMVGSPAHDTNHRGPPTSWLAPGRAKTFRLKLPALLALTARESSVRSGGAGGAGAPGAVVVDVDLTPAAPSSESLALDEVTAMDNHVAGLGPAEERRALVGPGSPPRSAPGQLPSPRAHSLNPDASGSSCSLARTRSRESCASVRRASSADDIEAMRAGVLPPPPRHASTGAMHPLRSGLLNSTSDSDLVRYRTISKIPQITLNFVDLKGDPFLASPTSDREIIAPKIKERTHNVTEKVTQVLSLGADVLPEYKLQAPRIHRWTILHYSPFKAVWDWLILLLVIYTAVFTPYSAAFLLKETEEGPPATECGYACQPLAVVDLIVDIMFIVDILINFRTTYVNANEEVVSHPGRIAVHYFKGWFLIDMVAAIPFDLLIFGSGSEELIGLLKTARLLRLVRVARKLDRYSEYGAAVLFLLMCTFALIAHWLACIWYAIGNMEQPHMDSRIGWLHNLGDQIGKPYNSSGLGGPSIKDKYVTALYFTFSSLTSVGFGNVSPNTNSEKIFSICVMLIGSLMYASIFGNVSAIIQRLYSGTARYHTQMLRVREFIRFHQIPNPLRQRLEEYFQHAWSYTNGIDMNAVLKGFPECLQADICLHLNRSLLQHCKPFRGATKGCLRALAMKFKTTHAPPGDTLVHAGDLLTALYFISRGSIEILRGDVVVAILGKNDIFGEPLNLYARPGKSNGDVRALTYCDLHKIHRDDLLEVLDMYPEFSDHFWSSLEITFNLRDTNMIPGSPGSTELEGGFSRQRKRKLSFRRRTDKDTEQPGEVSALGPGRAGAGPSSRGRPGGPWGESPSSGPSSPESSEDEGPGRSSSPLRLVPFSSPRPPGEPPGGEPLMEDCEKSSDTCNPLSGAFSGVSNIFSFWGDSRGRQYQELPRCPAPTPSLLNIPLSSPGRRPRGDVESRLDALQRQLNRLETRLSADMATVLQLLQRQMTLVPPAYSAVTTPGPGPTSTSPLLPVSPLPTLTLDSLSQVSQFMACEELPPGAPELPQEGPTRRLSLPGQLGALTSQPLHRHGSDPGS

Row | SMILES | hERG current change (%, negative = inhibition) at 1uM
1 | O=S1(=O)CCC(n2ncc3c2/C(=C/c2ccccc2)CC3)C1 (stereo not drawn) | 9.48%
2 | COc1ccc(Br)cc1CNc1ccccc1.O=C(O)C(=O)O | 9.21%
3 | COC(=O)c1ccc(CNC(=O)COC(=O)CC23CC4CC(CC(Br)(C4)C2)C3)cc1 | 0.866%
4 | COc1ccc2c(c1)c1nc3n(c(=O)c1n2CC(=O)Nc1ccccc1)CCS3 | 12.1%
5 | COCCN1CC(=O)N2C(c3cccc(C)c3)c3[nH]c4ccccc4c3C[C@H]2C1=O (stereo partly drawn) | 1.07%
6 | CC1CCN(C(=O)c2cc(Cl)nc3ccccc23)CC1 | 12.4%
7 | CCN(CC)C1=CC(=O)OC12CCCCC2 | 7.37%
8 | O=C(COc1ccccc1)NCC(=O)N/N=C/c1cccs1 | 6.35%
9 | CCCCCC(=O)N1CC2(CC(c3cccc(NC(=O)COc4ccc(Cl)cc4)c3)=NO2)C[C@@H]1C(N)=O (stereo partly drawn) | -22.3%
10 | CCNC(=O)NC(=O)CSc1nc2ccccc2n1CCOC | 3.95%
11 | COc1ccc(/C=C/c2ccc3c(Br)ccc(O)c3n2)cc1 | 6.95%
12 | CCN(CC)c1ccc(/C=N/NC(=O)c2nnn(-c3nonc3N)c2C(C)C)c(O)c1 | 12.1%
13 | CCOC(=O)c1sc(NC(=O)CSc2nc3c(cc2C#N)CCCCC3)c(C#N)c1C | 7.55%
14 | Cc1ccc2oc(C(=O)N3CCN(CCO)CC3)c(C)c2c1 | 14.6%
15 | CC(=O)Nc1ccc(Nc2c([N+](=O)[O-])c(=O)n(-c3ccccc3)c3ccccc23)cc1 | 7.01%
16 | COc1ccc(-c2ccc(=O)n(Cc3cccc([N+](=O)[O-])c3)n2)cc1 | 8.51%
17 | CSCC[C@H](NC(=O)Nc1ccc(S(N)(=O)=O)cc1)C(=O)O | 10.7%
18 | Cn1c(O)c(C=NC2CCN(Cc3ccccc3)CC2)c(=O)n(C)c1=O | 3.17%
19 | FC(F)(F)c1cccc(/C=N/NC(=S)NC2CCCCC2)c1 | 12.1%
20 | COC(=O)C1=C(N)Oc2cc(C)n(CC3CCCO3)c(=O)c2C1c1ccc(Cl)c(Cl)c1 (stereo not drawn) | 3.93%
21 | O=C(Nc1ccc(Oc2ccc(Cl)cc2)c(Cl)c1)c1cc(I)cc(I)c1O | 15.4%
22 | COC(=O)c1c(C)[nH]c(C)c1-c1ccccc1Cl | 0.136%

Row | SMILES | hERG current change (%, negative = inhibition) at 1uM
23 | Cc1ccccc1NC(=S)N(CCN1CCCCCC1)Cc1cccs1 | 2.2%
24 | O=C(CCCC(=O)NNC(=O)Nc1ccccc1)NNC(=O)Nc1ccccc1 | 17%
25 | C[C@@H](C(=O)NCCc1ccccc1F)N1C(=O)N2CCc3c([nH]c4ccccc34)[C@@]2(C)C1=O | -4.43%
26 | Cc1ccc(NC(=O)CCC(=O)c2cc(C)sc2C)nc1 | -7.44%
27 | CC(=O)c1ccc(NC(=O)CN2C(=O)COc3ccc(Cl)cc32)cc1 | 9.54%
28 | O=C(CCn1cccc1)Nc1nccs1 | 4.25%
29 | O=C(Nc1ccnn1C1CCN(Cc2ccccc2F)CC1)C1CCCC1 | -6.15%
30 | CCOc1ccc2nc(-c3ccccc3)[nH]c2c1 | 6.79%
31 | O=C(O)C1=C[C@@H](c2ccc3c(c2)OCO3)C[C@@H](OCCCCO)O1 | 17%
32 | COCCn1nnnc1C(c1ccc(OC)cc1OC)N1CCN(c2ccccc2)CC1 (stereo not drawn) | -54.1%
33 | O=Cc1ccc(OCc2ccc3ccccc3c2)cc1 | 12.6%
34 | CCOC(=O)c1c(NC(=O)CN2C(=O)NC3(CCCCC3C)C2=O)sc(C)c1C (stereo not drawn) | 11.5%
35 | O=C(COC(=O)CCc1ccccc1)NC1CCS(=O)(=O)C1 (stereo not drawn) | 14%
36 | Cc1ccc(CN2CCC(CO)(CC3CCCCO3)CC2)o1 (stereo not drawn) | 9.94%
37 | CC(=O)N1CCC(=NNC(=O)c2cc3ccccc3cc2O)CC1 | 9.89%
38 | CC1CN(C(=O)Cn2c(=O)oc3ccccc32)CC(C)O1 (stereo not drawn) | 15.3%
39 | O=C(NC1CCCC1)c1cnn2c(C(F)(F)F)cc(-c3ccco3)nc12 | 0.247%
40 | CC(C)(C)C(=O)c1sc(Nc2ccccc2)nc1N | 9.05%
41 | Cc1cccc(-c2cc(C(=O)N3CCCc4ccccc43)c3ccccc3n2)c1 | 10.5%
42 | CCOC(=O)c1ccccc1NS(=O)(=O)c1ccccc1F | 10.4%
43 | O=C(COC(=O)c1ccc(S(=O)(=O)NCc2ccco2)cc1)Nc1ccc(OC(F)F)cc1 | 4.14%
44 | COc1cc(OC)c(NC(=O)c2cc(S(=O)(=O)N3CCOCC3)cn2C)cc1Cl | 13.3%

Row | SMILES | hERG current change (%, negative = inhibition) at 1uM
45 | CCn1ccc(C(=O)Oc2ccc(C(C)C)cc2)n1 | 10.2%
46 | COc1cccc(Nc2ncnc3ccccc23)c1.Cl | 6.61%
47 | CN(C)C(=O)Oc1cccc(-c2cn3cc(Cl)ccc3n2)c1 | 4.07%
48 | CCn1ncc(NC(=O)Nc2cccc(C(F)(F)F)c2)c1C(N)=O | 5.39%
49 | Cc1ccc(-c2nnc(N(C)C(=O)c3cccnc3)s2)cn1 | 6.03%
50 | Cc1ccc(C(=O)N/N=C(\CC(C)C)c2ccccc2)cc1 | -5.55%
51 | O=c1[nH]nc(-c2ccc(F)cc2)cc1Cc1ccccc1 | 11.8%
52 | Cc1cc(NC(=O)/C=C/c2ccccc2Cl)n(-c2nc3ccccc3[nH]2)n1 | 17.6%
53 | CCOC(=O)C1CCN(c2nc(-c3ccc(Br)cc3)nc3ccccc23)CC1 | 0.984%
54 | CCOC(=O)N1CCN(S(=O)(=O)N2CCCC(C(=O)NCCc3ccc(Cl)cc3)C2)CC1 (stereo not drawn) | 10.2%
55 | COC(=O)c1cc(S(=O)(=O)NCc2ccc3c(c2)OCO3)cn1C | 8.21%
56 | NS(=O)(=O)c1ccc(CCNC(=O)CN2CCN(c3ccc(F)cc3)CC2)cc1 | 4.09%
57 | COc1cccc(OC)c1C(=O)NC(=O)Oc1c(F)cccc1F | 11.2%
58 | COc1ccc(Nc2cc(C(=O)NCc3ccco3)c3ccccc3n2)cc1 | 9.95%
59 | CCc1ccc2nc(SCC(=O)N3CC(=O)Nc4ccccc43)c(C#N)cc2c1 | 12%
60 | Cc1cc(/C=C2\C(=O)NC(=O)N(c3ccc(Cl)cc3)C2=O)c(C)n1-c1sc2c(c1C#N)CCCC2 | 5.09%
61 | C=CCN1C(=O)NC2(CCCCC2)C1=O | -1.46%
62 | COc1ccc(C(=O)/C=C/c2ccccc2)c(OC)c1 | 8.99%
63 | Cc1c(N)c(C)c([N+](=O)[O-])c(C)c1[N+](=O)[O-] | 2.23%
64 | COc1nc(N=C(N)N)nc2ccc(C)cc12 | -3.96%
65 | O=C(O)Cc1ccc(NC(=O)Nc2cccc3ccccc23)cc1 | 8.27%
66 | Cc1cccc(C(=O)Nc2c(C(=O)N3CCN(C)CC3)cnn2-c2ccccc2)c1 | -0.113%

Row | SMILES | hERG current change (%, negative = inhibition) at 1uM
67 | COC(=O)c1sccc1NC(=O)c1cccs1 | 14.6%
68 | Cc1cccc(OCC(=O)N/N=C/CC(C)c2ccccc2)c1C (stereo not drawn) | 8%
69 | O=C1NC(=Nc2ccc(Cl)cc2)/C(=C/c2ccco2)S1 | 11.7%
70 | CN(C)CCNC(=O)C1CCN(S(=O)(=O)c2ccc3ccccc3c2)CC1 | 4.97%
71 | CCOc1cc(C=O)ccc1OCCSc1ccc(Cl)cc1 | 12.1%
72 | CC1(C)CC(=O)C=C(NNC(=O)c2cccnc2)C1 | 18%
73 | CC(C)CNC(=O)c1c(N)n(Cc2ccco2)c2nc3ccccc3nc12 | 2.83%
74 | CC(=O)O[C@H]1C(=O)[C@@]2(C)C([C@H](OC(=O)c3ccccc3)[C@]3(O)C[C@H](OC(=O)[C@H](O)[C@@H](NC(=O)Cc4ccccc4)c4ccccc4)C(C)=C1C3(C)C)[C@]1(OC(C)=O)CO[C@@H]1C[C@@H]2O (stereo partly drawn) | 16.9%
75 | CCCNc1nc(-c2cc(-c3ccc(Cl)cc3)on2)cc(C(C)C)n1 | 20.5%
76 | O=S(=O)(/N=C(/c1ccccc1)N1CCCCCC1)c1ccccc1 | -5.59%
77 | Br.c1ccc(-c2csc(NNC3=NCCCCC3)n2)cc1 | 4.09%
78 | O=C(Nc1ccccc1C(F)(F)F)c1cc(S(=O)(=O)N2CCOCC2)ccc1F | -4.51%
79 | N#C/C(=C\c1cccc([N+](=O)[O-])c1)C(=O)NCc1cccnc1 | -9.73%
80 | CCc1cc[n+](C2=C([O-])c3ccccc3C(=O)/C2=N\S(=O)(=O)c2cccs2)cc1 | 7.52%
81 | CCSc1nc(=S)n(Cc2ccccc2)c(C)c1C(C)=O | 9.28%
82 | CCCC(=O)OC(C(=O)Nc1cc(C(F)(F)F)ccc1Cl)c1ccccc1 (stereo not drawn) | 5.1%
83 | COc1ccc(-c2cc(C(=O)NCCCN3CCCC3=O)c3ccccc3n2)cc1OC | -33.2%
84 | CSc1ccccc1NC(=O)c1ccc(N2CC3CC(C2)c2cccc(=O)n2C3)c(NC(=O)c2ccncc2)c1 (stereo not drawn) | 18%
85 | COc1ccc(CCN2C(=O)CSC2=S)cc1OC | 11.5%
86 | CCN1CCN(C(=O)CSc2cc(=O)n(CC)c3ccccc23)CC1 | 5.76%
87 | O=C(Nc1cccc(F)c1)c1ccc2ncsc2c1 | 13.9%
